This excerpt belongs to a sample that is enriched for the strongest signals.
Key:
Assay in all cases: glycan array binding signal (z-score within array); higher = stronger binding
Settings in all cases: glycan notation: IUPAC condensed, linker removed
[1] = system: GlcNAc(a1-4)Gal(b1-4)GlcNAc(b1-3)Gal(b1-4)GlcNAc
In short: (§1)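 Arrays were curated from the Consortium for Functional Glycomics database, 3228 in total, and kept only where the protein sequence was available. Binding is expressed as a within-array Z-score. This score was averaged across arrays of the same protein sequence at different concentrations or buffers and across linkers, and negative values can be read as non-binding.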

[2] = system: GlcNAc(a1-4)Gal(b1-4)GlcNAc(b1-3)Gal(b1-4)Glc
In short: as §1

[3] = system: GlcNAc(a1-4)Gal(b1-4)GlcNAc
In short: as §1

[4] = system: GlcNAc(a1-6)Gal(b1-4)GlcNAc
In short: as §1

[5] = system: GlcNAc(b1-2)Gal(b1-3)GalNAc
In short: as §1

[6] = system: GlcNAc(b1-2)Gal(b1-3)GlcNAc
In short: as §1

## Siglec-2 (Homo sapiens) (chain not printed)
[1]
  glycan array binding signal (z-score): -0.182

## FGF2 (chain not printed)
[1]
  glycan array binding signal (z-score): -0.491
[2]
  glycan array binding signal (z-score): -0.285

## CLEC-2 (Homo sapiens) (chain not printed)
[2]
  glycan array binding signal (z-score): 0.275
[3]
  glycan array binding signal (z-score): -0.061

## H-Ficolin (Homo sapiens) (chain not printed)
[4]
  glycan array binding signal (z-score): 2.01

## L-Ficolin (Homo sapiens) (chain not printed)
[4]
  glycan array binding signal (z-score): 5.31

## M-Ficolin G221F A256V (Homo sapiens) (chain not printed)
[5]
  glycan array binding signal (z-score): -0.308

## M-Ficolin (Homo sapiens) (chain not printed)
[5]
  glycan array binding signal (z-score): -0.264

## Serum Amyloid P component (Homo sapiens) (chain not printed)
[6]
  glycan array binding signal (z-score): -0.629

— the supplement of paper PMC8728848
